We go through 1 molecule from patent US10858425B2, “Pan-ELR+ CXC chemokine antibodies” (Eli Lilly and Company, priority 2013, dated 2020).

One test addresses T1, human CXCL3 (Homo sapiens, UniProt P19876).
T1 sequence (P19876 35-107): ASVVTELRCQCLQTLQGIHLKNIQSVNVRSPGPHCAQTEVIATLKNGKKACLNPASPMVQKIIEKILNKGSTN
Nature of the test: FLIPR neutralization using HMEC cells expressing human CXCR2, CXCL3. The class given is cell-based. Conditions: CXCL3 10 nM; HMEC-huCXCR2 FLIPR. An excerpt: (§1) Since all of the ELR+ CXC chemokines can bind CXCR2 receptor, cells expressing CXCR2 were selected for in vitro studies. HMEC-huCXCR2 is an immortalized human endothelial cell line transduced with retrovirus for expression of human CXCR2 receptor. HMEC cells expressing human CXCR2 are able to induce intracellular Ca^2+ influx in response to human, cynomolgus monkey, rat, and mouse ELR+CXC chemokines. Intracellular Ca^2+ influx can be detected by a Fluorescent Imagine £late Reader (FLIPR). Chemokine neutralization should therefore also neutralize intracellular Ca^2+ influx induced by these chemokines.
(§2) HMEC-huCXCR2 is maintained in MCDB 31 medium supplemented with 10% fetal bovine serum, 2× GlutaMax, 1× non-essential amino acids, 1 μg/mL hydrocortisone, 10 ng/mL human Epidermal Growth Factor, and 0.4 μg/mL puromycin at 37° C. in 5% CO2. […] A cell plate and a ligand-antibody plate are loaded into a Fluorescent Imagine Plate Reader (FLIPR-3, Molecular Devices) programmed to transfer 50 μL of ligand-antibody to wells of the cell plate. Fluorescence is recorded every second for 90 seconds. The change in fluorescence (DRFU) is calculated from images 10 to 90. DRFU versus log (antibody concentration) is plotted and IC50 values are determined by nonlinear regression using Graph Pad Prism. […] Data are expressed as the mean of replicates. […]

For the next test, the target named is T2, human CXCL6 (Homo sapiens, UniProt P80162).
T2 sequence (P80162 40-114 limits assumed): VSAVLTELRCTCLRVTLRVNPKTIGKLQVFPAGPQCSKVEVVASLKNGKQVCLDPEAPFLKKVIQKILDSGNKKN
Nature of the test: FLIPR neutralization using HMEC cells expressing human CXCR2, CXCL6. The class given is cell-based. Conditions: CXCL6 10 nM; HMEC-huCXCR2 FLIPR.
Description: as §1, §2

The target in the next test is T3, human CXCL5 (ENA-78) (Homo sapiens, UniProt P42830).
T3 sequence (P42830 41-114 limits assumed): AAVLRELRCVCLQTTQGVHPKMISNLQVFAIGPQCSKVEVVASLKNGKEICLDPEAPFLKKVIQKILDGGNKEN
Kind of test: Biacore surface plasmon resonance binding to human CXCL5. The note with it: 25° C. On the procedure:
Biacore 2000 instrument and Biacore 2000 Evaluation Software Version 4.1 are used for surface plasmon resonance analysis. A […] chip is prepared using manufacturer's EDC/NHS amine coupling method. Briefly, the surfaces of all four flow cells are activated by injecting a 1:1 mixture of EDC/NHS for 7 minutes at 10 μL/min. Protein A is diluted to 100 μg/mL in 10 mM acetate, pH 4.5 buffer, and immobilized to achieve approximately 10,000 RU onto all 4 flow cells by 7-minute injection at a flow rate of 10 μL/minute. Unreacted sites are blocked with a 7-minute injection of ethanolamine at 10 μL/minute. Two injections of glycine (pH 1.5) for 30 seconds at 10 μL/minute are used to remove any non-covalently associated protein. Running buffer is HBS-EP+.
Antibody 1 or Antibody 2 is diluted to 2 μg/mL in running buffer, and approximately 400-600 RU is captured in flow cell (Fc). Ligands are diluted from 100 μg/mL to 50 nM in running buffer and then two-fold serially diluted in running buffer to 3.125 nM. Duplicate injections of each ligand concentration are injected at 100 μL/min for 150 seconds followed by a dissociation phase. […] The on-rate (kon) and off-rate (koff) for each ligand are evaluated using a “1:1 (mass transfer) Binding” binding model. The affinity […] is calculated from the binding kinetics according to the relationship: KD=koff/kon.
On the technique in general: In SPR one partner is held on a chip, and binding of the other changes the refractive index at the surface.

Test [1] deals with T4, human CXCL8 point mutant R6A (Homo sapiens, UniProt P10145, R33A).
T4 construct: His-SUMO (N, cleaved yes); made in house; host or cells: E. coli
T4 sequence (P10145 28-99 R33A): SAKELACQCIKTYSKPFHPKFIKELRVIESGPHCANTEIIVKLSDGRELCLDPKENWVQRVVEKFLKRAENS
Nature of the test: Biacore binding kinetics, human CXCL8 R6A. Conditions: 25° C. An excerpt: Several key contacts between the Antibody 1 Fab and wild type human CXCL8 are observed in the crystal structure and are further tested through binding kinetic studies and U937-huCXCR2 fluorescent imaging plate reader (FLIPR) neutralization of human CXCL8 point mutants. To study these key contacts, several point mutants (R6A, I10A, A35P, I40A, and L49A) are made based on the human CXCL8 sequence (SEQ ID NO: 27). Wild type, R6A, I10A, A35P, I40A, and L49A human CXCL8 point mutants are expressed, refolded, and purified according to standard techniques. Formation of disulfide bonds is confirmed by tryptic digest and mass fingerprint analysis, and activity is confirmed by neutrophil chemotaxis assay.
Binding kinetics are tested on a Biacore 2000 instrument with Biacore 2000 Evaluation Software Version 4.1 as described above.
The on-rate (kon) and off-rate (koff) for each ligand are evaluated using a “1:1 (mass transfer) Binding” binding model. The affinity (KD) is calculated from the binding kinetics according to the relationship: KD=koff/kon.

B1: Antibody 1: antibody with heavy chain SEQ ID NO: 1 and light chain SEQ ID NO: 3, expressed in NSO cells (antibody)
heavy: QVQLVQSGAEVKKPGASVKVSCKASGYEFTSYWIHWVRQAPGQGLEWMGNISPNSGSANYNEKFKSRVTMTRDTSTSTVYMELSSLRSEDTAVYYCAREGPYSYYPSREYYGSDLWGQGTLVTVSSASTKGPSVFPLAPCSRSTSESTAALGCLVKDYFPEPVTVSWNSGALTSGVHTFPAVLQSSGLYSLSSVVTVPSSSLGTKTYTCNVDHKPSNTKVDKRV[human IgG4 Fc with S228P (EU numbers) not spelt out]
light: EIVLTQSPATLSLSPGERATLSCRASQSISNNLHWYQQKPGQAPRLLIYYTSRSVSGIPARFSGSGSGTDFTLTISSLEPEDFAVYYCGQNNEWPEVFGGGTKVEIKRTVAAPSVFIFPPSDEQLKSGTASVVCLLNNFYPREAKVQWKVDNALQSGNSQESVTEQDSKDSTYSLSSTLTLSKADYEKHKVYACEVTHQGLSSPVTKSFNRGEC
Take B1: the IC50 with human CXCL3 is 0.731 (±0.187) ug/mL; in the test with human CXCL6, 1.122 (±0.523) ug/mL. Besides, the kon in the test with human CXCL5 (ENA-78) was 5.43 ± 0.61 (1/Ms) × 10^5. The “KD (binding kinetics)” value in test [1] is recorded as “No Binding”.
